Laboratory results published in article PMC4336329 (PLoS ONE, 2015).
About 2,200 (0.71%) of roughly 310,000 compounds showed an effect of 50% or more. The effect is printed as a negative number. The list shows a part of the results.

These molecules were tested against human ether-à-go-go-related gene (hERG) potassium channel (human, UniProt Q12809) (assay: primary screen, population patch clamp on CHO cells stably expressing hERG).
Chain of human ether-à-go-go-related gene (hERG) potassium channel (Q12809 whole entry, looked up): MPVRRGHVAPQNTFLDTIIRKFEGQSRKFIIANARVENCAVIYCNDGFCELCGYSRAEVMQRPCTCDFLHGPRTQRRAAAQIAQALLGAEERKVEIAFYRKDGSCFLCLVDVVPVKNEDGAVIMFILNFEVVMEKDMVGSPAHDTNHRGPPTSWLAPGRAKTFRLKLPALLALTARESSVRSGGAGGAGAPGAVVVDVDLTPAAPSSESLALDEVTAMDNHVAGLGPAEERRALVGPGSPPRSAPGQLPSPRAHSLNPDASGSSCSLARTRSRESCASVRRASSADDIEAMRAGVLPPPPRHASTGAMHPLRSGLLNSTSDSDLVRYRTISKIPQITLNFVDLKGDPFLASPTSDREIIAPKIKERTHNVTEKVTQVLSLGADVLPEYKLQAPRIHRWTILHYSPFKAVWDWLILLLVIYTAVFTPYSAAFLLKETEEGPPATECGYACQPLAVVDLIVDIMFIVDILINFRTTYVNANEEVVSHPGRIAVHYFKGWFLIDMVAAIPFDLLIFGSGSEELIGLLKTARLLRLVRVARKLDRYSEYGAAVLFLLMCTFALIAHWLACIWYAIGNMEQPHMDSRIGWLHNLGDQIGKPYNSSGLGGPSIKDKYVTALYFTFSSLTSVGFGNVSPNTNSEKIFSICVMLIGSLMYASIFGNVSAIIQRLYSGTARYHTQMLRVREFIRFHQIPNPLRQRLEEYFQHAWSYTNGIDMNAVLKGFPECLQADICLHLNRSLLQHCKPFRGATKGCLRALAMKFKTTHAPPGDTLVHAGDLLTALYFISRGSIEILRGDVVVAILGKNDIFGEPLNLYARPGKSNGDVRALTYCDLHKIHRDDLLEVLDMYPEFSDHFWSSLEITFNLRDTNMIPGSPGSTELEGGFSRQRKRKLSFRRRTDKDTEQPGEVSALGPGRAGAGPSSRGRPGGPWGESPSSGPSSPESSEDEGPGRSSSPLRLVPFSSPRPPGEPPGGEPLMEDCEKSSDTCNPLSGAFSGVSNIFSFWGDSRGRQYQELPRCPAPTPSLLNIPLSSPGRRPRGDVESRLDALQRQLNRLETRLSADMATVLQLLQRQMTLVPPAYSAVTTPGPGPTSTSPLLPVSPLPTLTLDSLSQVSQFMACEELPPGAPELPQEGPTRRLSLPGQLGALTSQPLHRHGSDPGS

SMILES | hERG current change (%, negative = inhibition) at 1uM [%]
Cc1onc(-c2c(F)cccc2Cl)c1C(=O)Nc1cccc(S(=O)(=O)NC2=NCCC2)c1 | 12.7
CC1C/C(=N/N=C2/NC(=O)CS2)CC(C)(C)C1 (stereo not shown) | 7.26
Cc1ccc(S(=O)(=O)N2CCOCCOCCOCCOCCOCC2)cc1 | 3.2
Cc1ccc(-c2n[nH]c(=S)n2/N=C/c2ccc(C(=O)O)cc2)cc1 | 8.04
NC(=O)Cn1nc([N+](=O)[O-])nc1Oc1ccccc1F | 7.7
CCCCN(CC)S(=O)(=O)c1c(C)[nH]c(=O)[nH]c1=O | 7.23
CC(C)OCCCn1c(NN)nc2ccccc2c1=O | 15.2
COc1ccc2nc(SCC(C)=O)c(C#N)cc2c1 | 1.85
O=C(Nc1cccnc1)c1ccc(Cl)c(S(=O)(=O)N2CCCC2)c1 | 15.7
Cc1[nH]c(=O)[nH]c(=O)c1S(=O)(=O)N1CCCC(C(=O)NCc2ccco2)C1 (stereo not shown) | 5.98
C=CCn1c(C)cc(C(=O)COC(=O)/C=C/c2c(C)nn(C3CCS(=O)(=O)C3)c2Cl)c1C (stereo not shown) | 13.8
CCOC(=O)c1ccc2[nH]c(C)cc(=O)c2c1 | 2.81
CCOC(=O)N1CCN(C(=O)c2cc3cc(F)ccc3[nH]2)CC1 | 9.05
CC(C)CCN1C(=O)c2ccc(C(=O)Nc3ccc(O)cc3C(=O)O)cc2C1=O | 8.64
C#CCN(C(=O)CC1C(=O)NCCN1C/C=C/c1ccccc1)C1CCCCC1 (stereo not shown) | 12.5
COc1ccc(Nc2nc(-c3c[nH]c4ccccc34)cs2)cc1 | 10.4
COc1ccc(Cl)cc1N(C(C)C(=O)NC1CCCC1)S(C)(=O)=O (stereo not shown) | 6.74
CC1(C)CC(=O)C=C(NCC(O)c2ccccc2)C1 (stereo not shown) | 14.7
Cc1cc(N/N=C\c2ccc(Br)cc2)nc(-n2nc(C)cc2C)n1 | 17.8
CCCCn1c(N)c(N(CCOC)C(=O)c2nn(CC)c(=O)c3ccccc23)c(=O)[nH]c1=O | 9.16
O=C(Cc1ccc(-n2c(=O)[nH]c3ccccc3c2=O)cc1)N1CCN(c2cccc(Cl)c2)CC1 | 0.998
CN1CCN(C(=O)c2c(O)c3cccc4c3n(c2=O)CC4)CC1.Cl | 12.3

SMILES | hERG current change (%, negative = inhibition) at 1uM [%]
Cn1c(SCC(=O)Nc2ccc3c(c2)OCCO3)nnc1-c1ccncc1 | 9.72
COc1ccc(-c2cc(C(=O)NCc3cccnc3)no2)cc1OC | 5.34
C=CCSC(=S)NC1CCS(=O)(=O)C1 (stereo not shown) | 5.2
COc1ccc(S(=O)(=O)NCc2ccncc2)cc1NC(=O)c1ccccc1F | 13.9
Cc1ccc(-n2nc3cc(C)c(N)cc3n2)cc1 | 13.3
C=CCNC(=O)CN1CCN(C(c2ccccc2)c2ccccc2)CC1.O=C(O)C(=O)O | 11.1
CCC1(c2ccc(F)cc2)NC(=O)N(CC(=O)Nc2ccc(-c3nc4ccc(C)cc4s3)cc2)C1=O (stereo not shown) | 10.7
CCN(CC)c1ccc(/C=C(/C#N)c2nc3ccccc3[nH]2)c(OC(C)C)c1 | -0.153
COc1ccc(CCNC(=O)C2CCN(S(=O)(=O)N3CCC4(CC3)OCCO4)CC2)cc1OC | 5.86
Cc1ccc(S(=O)(=O)NCC2COc3ccccc3O2)cc1 (stereo not shown) | 6.71
Cc1nn(-c2ccccc2)nc1C(=O)Nc1ccc2[nH]ncc2c1 | 3.94
CC(C)Cc1nc(C(N)=O)c2[nH]c(=O)n(-c3ccc(F)cc3)c2n1 | 9.99
Cc1cc(C)c(C#N)c(OCc2ccc(Cl)nc2)n1 | 11.8
Cc1cccc(Nc2nc3ccccc3s2)c1C | 4.7
Cc1cc(NS(C)(=O)=O)c(=O)n(Cc2c(F)cccc2Cl)c1 | 13.3
CC(=O)c1c(C)[nH]c(C(=O)COC(=O)CCSc2ccccc2)c1C | 16
O=C(COC(=O)c1cc(=O)[nH]c2ccccc12)NC1CCCC1 | 13.5
Cn1c(=O)oc2cc(S(=O)(=O)Nc3cccc4c3CCCC4)ccc21 | 12.1
CC(=O)C1=C(C)OC(N)=C(C#N)C1c1cccnc1 (stereo not shown) | -4.54
COC(=O)c1ccc(NC(C(=O)OC)C(C)C)c([N+](=O)[O-])c1 (stereo not shown) | 3.82
C#CCCOC(=O)N1C2=NC(C(=O)OC)=C(C(=O)OC)[C@@H]3Nc4ccccc4[C@]23C[C@H]1C(=O)OC | 10.1
CCC(C)Sc1nnc(NC(=O)C2CCN(C(=O)c3ccco3)CC2)s1 (stereo not shown) | -26.8

SMILES | hERG current change (%, negative = inhibition) at 1uM [%]
CCc1ccc(N2CC(C(=O)Nc3ccc(C)c(S(=O)(=O)N4CCOCC4)c3)CC2=O)cc1 (stereo not shown) | -2.8
O=C(N[C@@H](Cc1ccccc1)C(=O)Nc1ccc(F)cc1)C1CCNCC1 | 14.4
O=S(=O)(NCCC1=CCCCC1)c1ccc(OC(F)(F)F)cc1 | -18.1
COc1ccc(S(=O)(=O)Nc2c(C)c(C)cc3c2ncn3C)cc1 | 3.58
Cc1ccc(C)c(CN2C(=O)CSc3ccc(C(=O)NCCN4CCOCC4)cc32)c1 | 20.1
O=C(NC(CC(=O)N1CCN(c2ccccc2O)CC1)c1ccccc1)c1ccccc1Cl (stereo not shown) | -15.6
Cc1ccc2c(CC(=O)N3CCOCC3)coc2c1 | 2.04
COc1ccc(N(CC(=O)Nc2ccccc2OC)S(=O)(=O)c2ccccc2)cc1Cl | 14.2
Cc1c(C)n(Cc2ccccc2)c2ccc(C(=O)NCCN3CCOCC3)cc12 | 11.9
O=C(c1ccc2oc(CCc3ccccc3)nc2c1)N1CC[C@H](O)C1 | 11.3
CCC(C)c1ccccc1NC(=O)C(C)OC(=O)c1ccco1 (stereo not shown) | -11.2
Cc1ccc(S(=O)(=O)N2CCCC2C(=O)OCC(=O)Nc2ccc3c(c2)OCO3)cc1 (stereo not shown) | 10.8
O=C(C1CCCN1C(=O)c1cccs1)N1CCN(S(=O)(=O)c2ccc(F)cc2)CC1 (stereo not shown) | 13.8
COc1cc2c(cc1OC)-c1cc(Nc3ccccc3Br)nc(=O)n1CC2 | 14.8
CCc1ccc2c(c1)C(NC(C)=O)C(=O)N2CC (stereo not shown) | 10.8
COCCn1ccc2c(OCC(=O)NCCc3ccc(OC)c(OC)c3)cccc2c1=O | -11.2
FC(F)(F)c1cccc(Sc2cc(C(F)(F)F)nc(-c3ccccn3)n2)c1 | 8.02
CCOC(=O)c1cc(-c2ccc(F)cc2)n(CCC(=O)NC2CCN(Cc3ccccc3)CC2)c1C | -26
CNc1cc(=O)n(C)c(=O)n1-c1ccccc1 | 13.3
Cc1[nH]c2ccccc2c1/C=C(\C#N)C(=O)NCc1ccccc1 | 13.6
COc1cc(OC)cc(C(=O)NC(C(=O)NCc2ccccn2)C(C)C)c1 (stereo not shown) | 10.7
CCCCNC(=O)N1CCOCCOCCN(C(=O)NCCCC)CCOCCOCC1 | 7.75

SMILES | hERG current change (%, negative = inhibition) at 1uM [%]
CN1CCC(N(C)C(=O)c2cc(-c3ccccc3Cl)nc3ccccc23)CC1.Cl | -48.1
CCCN(CC(=O)Nc1ccccc1OC)C(=O)c1cccc(S(=O)(=O)NCc2ccccc2)c1 | 11.3
Nc1nc2nccc(-c3cccnc3)n2n1 | 13.6
CC(C)(C)CC(C)(C)NC(=O)/C=C/C(=O)O | 11.1
COc1cc(C(=O)ONC(=O)c2ccc(OC(F)F)cc2)cc(OC)c1OC | 16.6
CC1CN(C(=O)COC(=O)c2ccc(C#N)cc2)CC(C)O1 (stereo not shown) | 10.1
CC(=O)c1cc(-c2ccc(F)cc2)n(CCC(=O)Nc2cccc(C)n2)c1C | 15
Cc1cc(NCCCn2ccnc2)n2c(nc3ccccc32)c1C#N | 9.83
COc1ccc(OCC(=O)OCC(=O)NCc2ccc(F)cc2)cc1 | 7.78
O=C(Cc1ccc(Cl)cc1)NNC(=O)Nc1cccc2ccccc12 | 16.7
O=C(O)C1C2CCC(O2)C1C(=O)NC1CCCCC1 (stereo not shown) | 6.99
Cc1ccc(N2C(=O)C3NN=C(C(=O)OCc4ccccc4)C3C2=O)c(C)c1 (stereo not shown) | 6.13
N#CCCN1CCN(S(=O)(=O)c2ccc(S(=O)(=O)NC3CC3)cc2)CC1 | 5.87
CCCc1cc(C(=O)N2CCN(c3ccc(C(F)(F)F)cn3)CC2)sc1C | -14.8
O=C(Cc1ccc([N+](=O)[O-])cc1)N1CCN(c2ccc([N+](=O)[O-])cc2)CC1 | -82.5
N=c1oc2cc(O)ccc2cc1C(=O)Nc1ccc(Br)cc1 | 2.13
COc1ccc(OC)c(NC(=O)CCN2C(=O)c3cccc([N+](=O)[O-])c3C2=O)c1 | 17
OCCN(CCCn1c(-c2ccncc2)nc2ccccc21)c1nc(CN2CCCCC2)cs1 | 20.9
Cc1cc(OCCOCCN(C)CCO)cc(C)c1Cl | 3.39
Cc1c(NC(=O)c2ccc(F)cc2)c(=O)n(-c2ccccc2)n1C | 8.93
Cc1ccc(NC(=O)CN2CCCC2)cc1Br.Cl | 7.18
Cc1ccc(N2CCN(C(=S)Nc3ccccc3C)CC2)cc1 | 16.2
